According to PubChem BioAssay AID743279 (National Center for Advancing Translational Sciences (NCATS), 2014):
The whole screen tested about 360,000 compounds, of which about 17,000 (4.7%) were called active. Inconclusive means that the source gave no clear call. Such entries were picked first, then a sample of the others. Rule as the data show it: active = activity change below about -50%; inconclusive = mostly about -30% to -49%; inactive = weaker than that.

assay: qHTS for Inhibitors of Inflammasome Signaling: IL-1-beta AlphaLISA Primary Screen; details: THP-1 LPS/ATP IL-1B secretion, 16 h; at 57.5 µM, active compounds read low
Method in brief: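 THP-1 cells pretreated 1 hr with compounds (up to 57.5 uM final), then stimulated with LPS (250 ng/mL final) plus ATP (1.25 mM final); secreted IL-1B measured by AlphaLISA after 16 hr, decreased signal indicating inhibition.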
% is scaled to controls: 0 for no effect and ±100 for the full control effect.

Q: Which activity change does the source give for `Cc1cc(Nc2ccc(Cl)cc2)nc(NCc2ccccc2)n1` here?
A: inconclusive: -31.3%

Q: With `Cc1cnc(C(=O)OCC(=O)N(Cc2ccccc2)C(C)(C)C)cn1` as the molecule, how does the activity change read?
A: inactive: 17.4%

Q: With `CCCCn1c(N)c(S(=O)(=O)c2ccc(C)cc2)c2nc3ccccc3nc21` as the molecule, how does the activity change read?
A: active: -81.2%

Q: With `O=C(CN1CC[n+]2c(-c3cccs3)csc21)c1ccc(Br)cc1` as the molecule, how does the activity change read?
A: inconclusive: -37.9%

Q: With `Cc1c(Cl)cccc1NC(=S)NCCC(c1ccccc1)c1ccccc1` as the molecule, how does the activity change read?
A: inconclusive: -38.7%

Q: For `COc1cc(-n2c(C)nc3cc(C(=O)NCc4ccco4)ccc32)cc(OC)c1OC`, which activity change is on record?
A: inconclusive: -46.9%

Q: For `O=C(COC(=O)C12CC3CC(CC(Br)(C3)C1)C2)Nc1cccc(S(=O)(=O)N2CCOCC2)c1`, which activity change is on record?
A: inconclusive: -35.9%

Q: For `CCC(C)Nc1nc(N)c([N+](=O)[O-])c(N2CCCCCC2)n1` (configuration not stated), which activity change is on record?
A: inconclusive: -48.4%

Q: For `CCN(c1ccccc1)S(=O)(=O)c1ccc(F)cc1C`, which activity change is on record?
A: inactive: -13.3%

Q: For `Cc1ccc2c(c1)c1c(n2CC(O)CNC(C)(C)C)CCCC1` (configuration not stated), which activity change is on record?
A: inconclusive: -45.7%

Q: Which activity change does the source give for `O=C1C=CC(=Nc2ccc(F)cc2)O1` here?
A: active: -51.2%

Q: For `CC(C)c1ccc(NC(=O)C2Cc3c(-c4cccc(C(N)=O)c4)ccnc3O2)cc1` (configuration not stated), which activity change is on record?
A: inconclusive: -45.9%

Q: Which activity change does the source give for `C=CCN(CC=C)c1cnn(-c2nc3ccccc3[nH]2)c(=O)c1Cl` here?
A: inconclusive: -43.6%

Q: Which activity change does the source give for `CC1=C(C(=O)N2CCCCCC2)CC(CC(=O)NC(c2ccccc2)c2ccccc2)C(=O)N1Cc1ccccc1` (configuration not stated) here?
A: inconclusive: -43.2%

Q: For `Cc1ccc(-c2nn3c(C)nnc3s2)cc1NC(=O)c1ccc(Br)o1`, which activity change is on record?
A: inactive: 13.7%

Q: With `O=C(/C=C/c1cccs1)c1ccc(N2CCOCC2)cc1` as the molecule, how does the activity change read?
A: active: -69.4%

Q: For `O=C(CCCN1CCC(C(=O)c2ccc(F)cc2)CC1)c1ccc(F)cc1`, which activity change is on record?
A: inconclusive: -41%

Q: Which activity change does the source give for `CC1CCN(C(=O)COC(=O)C2CCN(S(=O)(=O)c3ccc(Cl)c(C(F)(F)F)c3)CC2)CC1` here?
A: inactive: 19.1%

Q: With `O=C1NC(=O)/C(=C\c2ccc(O)cc2O)S1` as the molecule, how does the activity change read?
A: inconclusive: -33.2%

Q: With `COc1ccccc1CNC(=O)C1(NC(=O)Nc2ccc(C)cc2)CCCCC1` as the molecule, how does the activity change read?
A: inconclusive: -30.1%

Q: With `CN(CCCNC(=O)c1cccn2c(=O)c3ccccc3nc12)Cc1ccccc1` as the molecule, how does the activity change read?
A: inconclusive: -49.8%

Q: Which activity change does the source give for `COc1ccc(-c2nc(CS(=O)CC(=O)NC3CCC(C)CC3)c(C)o2)cc1OC` (configuration not stated) here?
A: inconclusive: -37.2%

Q: Which activity change does the source give for `CCNC(=S)/N=C(/Nc1ccc(OC)cc1)Nc1nc(C)cc(C)n1` here?
A: inactive: 25.8%

Q: With `COc1ccc(OC)c(S(=O)(=O)N2CCC(C(=O)Nc3cccc(C)c3)CC2)c1` as the molecule, how does the activity change read?
A: inconclusive: -31.4%

Q: Which activity change does the source give for `Cc1cc(NC(=O)c2cc([N+](=O)[O-])ccc2Cl)no1` here?
A: inconclusive: -45%

Q: Which activity change does the source give for `CCOC(=O)[C@]12CCC=C1N(Cc1ccccc1)C(=O)[C@H](CC(=O)NCCCCc1ccccc1)C2` here?
A: inconclusive: -35.1%

Q: For `Cc1ccc(/C=C(\C#N)c2nn(-c3ccccc3)c(N)c2C#N)cc1`, which activity change is on record?
A: inconclusive: -38.6%

Q: With `O=C(c1cccc2ccccc12)C1CCCN(C(=O)c2ccc(N3CCOCC3)cc2)C1` (configuration not stated) as the molecule, how does the activity change read?
A: inconclusive: -46.6%

Q: Which activity change does the source give for `CCC(C)CCN1C(N(C)C)=NC[C@@H]1C` (some centres not stated) here?
A: inactive: 27.5%

Q: With `Cc1cccc(N2CCN(C(=O)c3cc(C)oc3C)CC2C)c1` (configuration not stated) as the molecule, how does the activity change read?
A: inconclusive: -36.2%

Q: Which activity change does the source give for `Cc1cccc(-c2nc3ccccc3c3nncn23)c1` here?
A: inconclusive: -34%

Q: With `COc1ccc(Nc2nccc(-c3cccc(N)c3)n2)cc1` as the molecule, how does the activity change read?
A: active: -86.7%

Q: For `Cc1cccc2[nH]c3c(N4CCN(C(=O)c5ccco5)CC4)ncnc3c12`, which activity change is on record?
A: inconclusive: -46.3%

Q: For `CC(=O)n1cc(N(C(=O)CCl)c2ccccc2)c2ccccc21`, which activity change is on record?
A: active: -92.1%

Q: For `CNC(=S)N/N=C(\C)c1ccc(Cl)c(Cl)c1`, which activity change is on record?
A: inactive: -11.6%

Q: With `CC1NC(=O)c2cccnc2-n2c1nc1cc(F)c(F)cc1c2=O` (configuration not stated) as the molecule, how does the activity change read?
A: inactive: 32.2%

Q: With `CCc1cccc(C)c1NC(=S)N(CCN(C)C)Cc1cccs1` as the molecule, how does the activity change read?
A: inconclusive: -40.7%

Q: With `Cc1ccc(N(Cc2cc(=O)[nH]c3ccccc23)C(=O)CCl)cc1` as the molecule, how does the activity change read?
A: active: -99.5%

Q: For `CCN(CCCNC(=O)C1c2ccccc2C(=O)N(CCOC)C1c1ccc(F)cc1)Cc1ccccc1` (configuration not stated), which activity change is on record?
A: inconclusive: -42.1%

Q: With `Cc1cc(OCC(=O)NCCCN2CCCC2=O)c2c(C)c(C)c(=O)oc2c1` as the molecule, how does the activity change read?
A: inconclusive: -31.8%

Q: For `CCCc1nc2ccccc2c(C(=O)OCC(=O)Nc2ccc(S(=O)(=O)N3CCOCC3)cc2)c1CC`, which activity change is on record?
A: active: -66.7%

Q: For `Cn1ncc2c(Nc3ccc4ccccc4c3)ncnc21`, which activity change is on record?
A: inactive: -17.5%

Q: With `Cc1nn(-c2ccccc2)cc1C(=S)Nc1ccccc1` as the molecule, how does the activity change read?
A: inconclusive: -33.9%

Q: With `Cc1cccc(-n2cnc3c(sc4nc(N5CCOCC5)c5c(c43)CCCC5)c2=O)c1` as the molecule, how does the activity change read?
A: inconclusive: -43.1%

Q: With `COc1ccc(C2CC2/C(=N/O)c2ccccc2)cc1` (configuration not stated) as the molecule, how does the activity change read?
A: inconclusive: -32.1%

Q: With `CC(=O)Oc1ccc(Cl)cc1CN(C(C)=O)C1CCCCC1` as the molecule, how does the activity change read?
A: inconclusive: -43.3%

Q: For `CC(=O)Nc1sc(N/N=C/c2ccccc2)nc1-c1ccc(C)cc1`, which activity change is on record?
A: active: -90.2%

Q: With `Cc1ccc(-n2nc3c(=O)n(CCCC(=O)NCc4ccc(C)o4)nc(C)c3c2C)cc1` as the molecule, how does the activity change read?
A: inconclusive: -40.7%

Q: With `O=C(C=Cc1ccco1)c1ccc2ccccc2c1` as the molecule, how does the activity change read?
A: active: -64.8%

Q: For `CCCNC(=O)c1c(CSc2ccc(Cl)cc2)noc1C(=O)NCc1ccccc1`, which activity change is on record?
A: inconclusive: -42.7%

Q: Which activity change does the source give for `Cc1nnc(SCC(=O)Nc2nsc(-c3ccc(Cl)cc3)n2)s1` here?
A: inconclusive: -31%

Q: For `CC(C)C[C@H]1CNC(=S)N1CC1CCN(CCCCc2ccccc2)CC1`, which activity change is on record?
A: inconclusive: -47%

Q: With `Cc1ccc(N2CCN(c3ncccc3[N+](=O)[O-])CC2)c(C)c1` as the molecule, how does the activity change read?
A: active: -50.4%

Q: Which activity change does the source give for `CC(C)N=C1NN=C(c2ccc(Cl)c(Cl)c2)CS1` here?
A: active: -73.8%

Q: Which activity change does the source give for `COc1ccc(-c2nc3ccccc3n(CC(C)C)c2=O)cc1` here?
A: inactive: -6.66%

Q: Which activity change does the source give for `CC(C)c1ccc(/C=C/C(=O)NCCCc2ccccc2)cc1` here?
A: inconclusive: -40.9%

Q: With `O=C(Nc1ccccc1C(=O)NCc1ccco1)NC1CCCCC1` as the molecule, how does the activity change read?
A: inconclusive: -33.5%

Q: Which activity change does the source give for `Cc1c(C(=O)N2CCCCC2)c(S(=O)(=O)N2CCN(c3ccc(Cl)cc3)CC2)c(C)n1C` here?
A: inconclusive: -36.4%

Q: Which activity change does the source give for `CN(CCNC(=O)c1ccc(CS(=O)(=O)c2ccc(Br)cc2)o1)CCc1ccccc1` here?
A: inconclusive: -40.7%

Q: Which activity change does the source give for `CC(O)c1cc2c(cc1NC(=O)c1cnn3c1NC(c1ccco1)CC3C(F)(F)F)OCO2` (configuration not stated) here?
A: inconclusive: -31.9%

Q: For `O=C(C1CCN(S(=O)(=O)c2cccc3cccnc23)CC1)N1CCc2ccccc21`, which activity change is on record?
A: inconclusive: -33.7%

Q: For `COc1ccc(Cc2nc(-c3ccc(NC(=O)c4cccnc4)cc3)no2)cc1`, which activity change is on record?
A: inconclusive: -37.3%

Q: Which activity change does the source give for `O=[N+]([O-])c1cc(-c2ccc(/C=N/c3nc4ccccn4c3-c3ccco3)o2)ccc1Cl` here?
A: inconclusive: -47.8%

Q: Which activity change does the source give for `COc1ccnc(Oc2ccccc2)c1C(=O)N/C=N/OCc1ccc(F)cc1Cl` here?
A: inconclusive: -34.4%

Q: With `O=C(Nc1ccc(Cc2ccncc2)cc1)c1cccs1` as the molecule, how does the activity change read?
A: active: -75.3%

Q: With `CCOC(=O)C1=C(C)N=c2s/c(=C\c3cccc(OCC(=O)O)c3)c(=O)n2C1c1ccccc1` (configuration not stated) as the molecule, how does the activity change read?
A: inconclusive: -35.4%

Q: Which activity change does the source give for `O=C(O)CSc1c2c(nc3cc(C(=O)Nc4cccc(C(F)(F)F)c4)ccc13)CCC2` here?
A: inactive: -27.8%

Q: With `COc1ccc2cc([C@@H](C)C(=O)O)ccc2c1` as the molecule, how does the activity change read?
A: inconclusive: -32.2%

Q: With `O=C1CSC(c2ccc3c(c2)OCO3)N1c1ccc(Oc2ccccc2)cc1` (configuration not stated) as the molecule, how does the activity change read?
A: inconclusive: -34%

Q: With `CC1CCCC(C)N1C(=O)COC(=O)c1ccc(Br)o1` (configuration not stated) as the molecule, how does the activity change read?
A: inactive: -3.49%

Q: Which activity change does the source give for `Cc1ccc(C)c(CN2CCC(CNC(=O)CCc3nnc4ccc(N5CCC(C)CC5)nn34)CC2)c1` here?
A: inconclusive: -43.6%

Q: With `COc1ccc(C(=O)N2CCN(CC(=O)N3CCOCC3)CC2)cc1` as the molecule, how does the activity change read?
A: inactive: 3.24%

Q: Which activity change does the source give for `OCCn1c(-c2ccc3c(c2)OCO3)csc1=Nc1ccccc1` here?
A: active: -62.5%

Q: For `COc1ccc(CNC(=O)CCCn2nc(C)c3c(C)n(-c4ccc(C)cc4)nc3c2=O)cc1OC`, which activity change is on record?
A: inconclusive: -37.7%

Q: For `COc1cc(OC)c(C(=O)/C=C/c2ccc(OCc3ccccc3)c(OC)c2)c(OC)c1`, which activity change is on record?
A: active: -90.4%

Q: Which activity change does the source give for `CCCCCNC(=O)c1ccc2c(c1)ncn2-c1ccc(OC)cc1` here?
A: inconclusive: -35.5%

Q: With `CC(C)(C)NS(=O)(=O)c1ccc(CCC(=O)Nc2cc(Cl)ccc2Oc2ccccc2)cc1` as the molecule, how does the activity change read?
A: active: -63.2%

Q: With `CC(C)(C)C(=O)Nc1ccc(N=Nc2ccccc2)cc1` as the molecule, how does the activity change read?
A: inconclusive: -36.3%

Q: For `CCOc1ccccc1NC(=O)CN(C)S(=O)(=O)c1cccc2nsnc12`, which activity change is on record?
A: inconclusive: -41.9%

Q: For `O=C(Nc1ccc(N2CCOCC2)cc1)Nc1ccc(Cl)c(Cl)c1`, which activity change is on record?
A: inconclusive: -46.4%

Q: With `CCN(Cc1ccncc1)Cc1ccc(OC)c(OC)c1` as the molecule, how does the activity change read?
A: inconclusive: -33.3%

Q: With `COc1cc(S(=O)(=O)N(CCc2ccccc2)Cc2cccs2)ccc1-n1cnnn1` as the molecule, how does the activity change read?
A: inactive: 7.65%

Q: With `O=c1[nH]c2ccccc2c2cn(-c3ccccc3)nc12` as the molecule, how does the activity change read?
A: inconclusive: -31%

Q: Which activity change does the source give for `CN(CC(=O)Nc1ccc(Cl)c(C(F)(F)F)c1)C(=O)C1CC(=O)N(C2CCCC2)C1` (configuration not stated) here?
A: inconclusive: -40.3%

Q: With `N#CC(c1cccc(Cl)c1)c1ccc2c(C(F)(F)F)cc(C(F)(F)F)nc2n1` (configuration not stated) as the molecule, how does the activity change read?
A: active: -105%

Q: Which activity change does the source give for `O=C(CSc1nc2ccccc2c(=O)[nH]1)N1CCCCC1` here?
A: inactive: 13.1%

Q: With `Nc1nc2n(n1)C(c1ccc(Cl)cc1)CC(c1ccc(F)cc1)N2` (configuration not stated) as the molecule, how does the activity change read?
A: inconclusive: -34.8%
